Consider seven molecules from paper PMC9763856.

Amino acid sequences for entries named in this document (tags omitted). A change or cut given only in a name is not applied to a line headed by its entry. Residues count along the entry.
UniProt P70340: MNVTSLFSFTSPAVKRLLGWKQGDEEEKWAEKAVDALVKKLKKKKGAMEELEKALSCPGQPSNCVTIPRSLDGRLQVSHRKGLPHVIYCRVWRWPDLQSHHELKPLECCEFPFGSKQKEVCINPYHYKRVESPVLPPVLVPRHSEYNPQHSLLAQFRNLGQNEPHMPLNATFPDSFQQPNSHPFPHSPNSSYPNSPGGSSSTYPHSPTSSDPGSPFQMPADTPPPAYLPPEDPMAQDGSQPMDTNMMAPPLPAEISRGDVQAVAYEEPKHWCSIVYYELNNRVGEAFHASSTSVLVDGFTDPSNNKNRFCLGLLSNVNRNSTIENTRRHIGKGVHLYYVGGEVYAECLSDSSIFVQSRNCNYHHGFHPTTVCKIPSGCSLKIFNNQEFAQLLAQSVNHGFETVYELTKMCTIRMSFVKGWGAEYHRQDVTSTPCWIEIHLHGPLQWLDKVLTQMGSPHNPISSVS
UniProt Q15797: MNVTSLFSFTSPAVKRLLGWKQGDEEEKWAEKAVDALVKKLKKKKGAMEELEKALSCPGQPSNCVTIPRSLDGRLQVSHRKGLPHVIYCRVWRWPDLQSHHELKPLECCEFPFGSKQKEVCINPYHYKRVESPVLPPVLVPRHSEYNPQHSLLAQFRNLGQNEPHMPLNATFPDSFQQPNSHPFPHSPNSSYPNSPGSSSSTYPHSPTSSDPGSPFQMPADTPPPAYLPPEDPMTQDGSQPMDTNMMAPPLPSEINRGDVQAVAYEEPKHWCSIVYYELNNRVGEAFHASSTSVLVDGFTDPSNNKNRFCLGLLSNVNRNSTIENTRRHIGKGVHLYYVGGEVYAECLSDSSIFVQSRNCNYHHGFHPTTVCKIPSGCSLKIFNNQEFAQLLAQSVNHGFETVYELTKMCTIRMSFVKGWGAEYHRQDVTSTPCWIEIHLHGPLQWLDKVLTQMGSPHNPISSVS
GST-SMAD1 MH1 domain: residues 12-136 of Q15797
GST-SMAD1 MH2 domain: residues 271-465 of Q15797
UniProt Q9HCE7: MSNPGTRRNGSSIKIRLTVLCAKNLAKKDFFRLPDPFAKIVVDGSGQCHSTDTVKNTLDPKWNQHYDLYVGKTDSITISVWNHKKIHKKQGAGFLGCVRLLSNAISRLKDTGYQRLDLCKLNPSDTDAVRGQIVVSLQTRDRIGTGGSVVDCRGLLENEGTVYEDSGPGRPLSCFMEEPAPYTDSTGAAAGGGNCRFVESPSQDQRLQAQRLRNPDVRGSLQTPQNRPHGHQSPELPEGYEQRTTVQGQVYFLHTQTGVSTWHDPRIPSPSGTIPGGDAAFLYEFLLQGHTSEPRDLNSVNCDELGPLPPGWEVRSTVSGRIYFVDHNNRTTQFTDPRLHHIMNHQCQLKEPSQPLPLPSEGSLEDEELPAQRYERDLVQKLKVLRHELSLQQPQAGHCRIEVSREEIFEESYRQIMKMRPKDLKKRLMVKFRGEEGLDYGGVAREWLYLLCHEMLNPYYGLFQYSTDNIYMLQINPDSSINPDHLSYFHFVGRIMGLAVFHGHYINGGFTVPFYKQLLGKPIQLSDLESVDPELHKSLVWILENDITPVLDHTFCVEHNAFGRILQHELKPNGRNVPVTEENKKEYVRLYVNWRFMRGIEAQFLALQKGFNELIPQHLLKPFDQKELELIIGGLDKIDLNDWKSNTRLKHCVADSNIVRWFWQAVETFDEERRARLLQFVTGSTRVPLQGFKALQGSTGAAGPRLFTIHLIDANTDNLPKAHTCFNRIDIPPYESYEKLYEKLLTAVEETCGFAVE
UniProt Q9CUN6: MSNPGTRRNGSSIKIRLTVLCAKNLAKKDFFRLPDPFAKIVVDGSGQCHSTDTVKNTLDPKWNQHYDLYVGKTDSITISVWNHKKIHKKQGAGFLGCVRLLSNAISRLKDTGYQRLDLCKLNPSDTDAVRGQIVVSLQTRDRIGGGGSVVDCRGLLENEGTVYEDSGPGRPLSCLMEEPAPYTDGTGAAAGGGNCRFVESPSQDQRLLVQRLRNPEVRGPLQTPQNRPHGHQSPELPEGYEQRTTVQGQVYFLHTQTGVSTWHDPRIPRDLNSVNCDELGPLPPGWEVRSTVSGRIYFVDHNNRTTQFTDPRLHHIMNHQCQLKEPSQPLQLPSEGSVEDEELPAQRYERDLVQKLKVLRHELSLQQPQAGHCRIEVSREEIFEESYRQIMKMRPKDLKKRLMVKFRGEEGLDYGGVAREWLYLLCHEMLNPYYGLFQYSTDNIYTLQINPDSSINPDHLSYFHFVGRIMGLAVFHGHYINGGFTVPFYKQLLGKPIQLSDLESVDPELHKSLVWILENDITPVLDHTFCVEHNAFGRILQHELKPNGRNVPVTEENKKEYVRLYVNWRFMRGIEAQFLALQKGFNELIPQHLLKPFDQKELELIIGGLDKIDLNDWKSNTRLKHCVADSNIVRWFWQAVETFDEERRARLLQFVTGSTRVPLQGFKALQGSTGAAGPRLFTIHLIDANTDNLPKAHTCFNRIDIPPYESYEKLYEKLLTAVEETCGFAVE

Experiment [1] has as its target T1, Flag-tagged TAPT1 (human Transmembrane anterior posterior transformation 1) (human) (UniProt Q6NXT6).
T1 sequence: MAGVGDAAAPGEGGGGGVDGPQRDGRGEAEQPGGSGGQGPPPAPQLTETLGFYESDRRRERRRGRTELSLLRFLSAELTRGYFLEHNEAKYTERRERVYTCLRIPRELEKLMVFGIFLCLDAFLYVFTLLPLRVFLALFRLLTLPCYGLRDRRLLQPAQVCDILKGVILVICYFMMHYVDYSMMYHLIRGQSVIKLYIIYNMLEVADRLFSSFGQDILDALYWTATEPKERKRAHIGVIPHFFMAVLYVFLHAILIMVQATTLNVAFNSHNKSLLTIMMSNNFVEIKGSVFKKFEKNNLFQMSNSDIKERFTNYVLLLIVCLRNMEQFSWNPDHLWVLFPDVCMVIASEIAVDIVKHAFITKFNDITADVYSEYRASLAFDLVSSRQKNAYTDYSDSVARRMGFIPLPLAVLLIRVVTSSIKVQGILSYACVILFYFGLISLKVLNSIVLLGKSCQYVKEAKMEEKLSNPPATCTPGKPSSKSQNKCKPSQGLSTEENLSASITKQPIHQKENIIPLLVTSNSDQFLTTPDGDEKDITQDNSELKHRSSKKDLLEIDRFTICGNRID
Briefly: co-IP; HEK293T cells transfected with Flag-tagged TAPT1; Flag immunoprecipitates blotted for endogenous proteins.

The target in experiment [2] is endogenous SMAD1 in C2C12 cells (mouse (endogenous in C2C12)) (UniProt P70340). Briefly: co-IP; endogenous proteins in whole C2C12 lysates (IP lysis buffer: 50 mM Tris pH 7.5, 150 mM NaCl, 1 mM EDTA, 10% glycerol, 1% Triton X-100), protein A/G agarose; anti-SMAD1 antibody for immunoprecipitation (Fig. 3H, 5J); cells with or without 100 ng/ml BMP2 for 1 h; WT or Tapt1+/- cells.

Experiment [3] has as its target T2, exogenous TAPT1 of the two-step IP (human) (UniProt Q6NXT6).
T2 sequence: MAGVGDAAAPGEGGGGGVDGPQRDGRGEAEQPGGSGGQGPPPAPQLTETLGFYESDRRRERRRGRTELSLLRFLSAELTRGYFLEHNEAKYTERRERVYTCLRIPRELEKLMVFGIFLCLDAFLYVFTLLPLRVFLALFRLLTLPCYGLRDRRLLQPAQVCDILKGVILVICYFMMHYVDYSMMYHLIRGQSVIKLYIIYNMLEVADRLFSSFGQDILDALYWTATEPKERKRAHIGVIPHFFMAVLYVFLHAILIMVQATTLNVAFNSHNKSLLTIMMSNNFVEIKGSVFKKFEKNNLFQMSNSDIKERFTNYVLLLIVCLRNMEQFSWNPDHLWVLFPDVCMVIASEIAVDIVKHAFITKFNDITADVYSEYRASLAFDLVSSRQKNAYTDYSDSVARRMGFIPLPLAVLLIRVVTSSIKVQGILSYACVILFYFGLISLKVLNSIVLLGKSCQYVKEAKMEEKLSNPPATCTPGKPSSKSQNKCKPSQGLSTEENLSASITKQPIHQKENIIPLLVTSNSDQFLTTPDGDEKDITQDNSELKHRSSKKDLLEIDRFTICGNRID
Briefly: co-IP; two-step IP from HEK293T cells transfected with SMAD1, SMURF1-CA and TAPT1: anti-Flag IP, elution with Flag peptides, then anti-HA IP, Western blot.

Experiment [4] has as its target endogenous SMAD1 in C2C12 cells (mouse (endogenous in C2C12)) (UniProt P70340). Briefly: co-IP; separated cytoplasmic and nuclear fractions of C2C12 cells with or without BMP2, immunoprecipitated with an anti-SMAD1 antibody.
The target is the same in experiment [5]. As to the kind of experiment: co-IP; endogenous proteins in whole C2C12 lysates (IP lysis buffer: 50 mM Tris pH 7.5, 150 mM NaCl, 1 mM EDTA, 10% glycerol, 1% Triton X-100), protein A/G agarose; anti-SMAD1 antibody for immunoprecipitation (Fig. 3H, 5J); cells with or without 100 ng/ml BMP2 for 1 h; WT or Tapt1+/- cells. The source holds these as a separate data set.

For a further experiment, the target named is GST-SMAD1 MH1 domain (UniProt Q15797). As to the kind of experiment: pull-down; GST fusion proteins expressed by bacteria incubated with lysates of HEK293T cells transfected with Flag-TAPT1; only the target purified.
In another experiment the target is GST-SMAD1 MH2 domain (UniProt Q15797). The experiment is described as above.
Another experiment deals with GST-SMURF1 (UniProt Q9HCE7). The description is as above.
The target of another experiment is GST-tagged SMAD1 (UniProt Q15797). Described as above.
The target of experiment [6] is endogenous SMAD1 in HEK293T cells (human (endogenous in HEK293T)) (UniProt Q15797). As to the kind of experiment: co-IP; endogenous SMAD1 immunoprecipitated from HEK293T cells, control or transfected with Flag-TAPT1 at various doses; blotted for endogenous SMURF1 and Flag-TAPT1.
In another experiment the target is Flag-SMAD1 (UniProt Q15797). Briefly: co-IP; HEK293T cells transfected with Flag-SMAD1 or Flag-SMAD1-SM; lysates immunoprecipitated and blotted for SMURF1 and TAPT1.

These are yes or no findings as the source states them, for the method shown. In cells and extracts the contact can be indirect. Some entries that bind do so weakly or less than the wild type. For part of these data: Where a sequence is shown, tags or fusion partners need not be part of it.

Consider “endogenous SMURF1 (SMAD ubiquitin regulatory factor 1) in HEK293T cells (from UniProt Q9HCE7 1-757) (enzyme)”, for which, in experiment [1], the binding result is “binds”.

Consider “endogenous SMURF1 in C2C12 cells (from UniProt Q9CUN6 1-731) (enzyme)”, for which, in experiment [2], the binding entry is listed as “binds”.

“endogenous SMAD1 in HEK293T cells (from UniProt Q15797 1-465)”: the binding entry in experiment [1] is “binds”.

As for “exogenous SMAD1 of the two-step IP (from UniProt Q15797 1-465)”, the binding result in experiment [3] is “binds”.

B1: endogenous TAPT1 in C2C12 cells (protein, UniProt Q4VBD2 1-564)
chain: MAGVCDAAAPGEGGGGGADGPERTGRGEAEQPGGGGHGPAPQHTETLGFYESDRRREKRRGRAELSLLRFLSAELTRGYFLEHNEAKYTERRERVYTCMRIPRELEKLMFFGIFLCLDAFLYVFTLLPLRVFLALFRLLTLPCYGLRDRRLLQPAQVCDILKGVILVICYFMMHYVDYSMMYHLIRGQSVIKLYIIYNMLEVADRLFSSFGQDILDALYWTATEPKERKRAHIGVIPHFFMAVLYVFLHAILIMVQATTLNVAFNSHNKSLLTIMMSNNFVEIKGSVFKKFEKNNLFQMSNSDIKERFTNYVLLLIVCLRNMEQFSWNPDHLWVLFPDVCMVIASEIAVDIVKHAFITKFNDITADVYSEYRASLAFDLVSSRQKNAYTDYSDSVARRMGFIPLPLAVLLIRVVTSSIKVQGILSYACVILFYFGLISLKILNSIVLLGKSCQYVKEAKMEEKLFNPPPASTPGKPSSKSQSKGKPSQGLSTEENLSASVTSQPGHQKENVIPLLVTSNSDQFLTTPDGDEKDITQENSELKHRSSKKDLLEIDRFTICGNRID
Turning to B1, the binding entry in [4] and in experiment [5] was “binds” in each case.

B2: Flag-tagged TAPT1 (human Transmembrane anterior posterior transformation 1) (protein, UniProt Q6NXT6 1-567)
chain: MAGVGDAAAPGEGGGGGVDGPQRDGRGEAEQPGGSGGQGPPPAPQLTETLGFYESDRRRERRRGRTELSLLRFLSAELTRGYFLEHNEAKYTERRERVYTCLRIPRELEKLMVFGIFLCLDAFLYVFTLLPLRVFLALFRLLTLPCYGLRDRRLLQPAQVCDILKGVILVICYFMMHYVDYSMMYHLIRGQSVIKLYIIYNMLEVADRLFSSFGQDILDALYWTATEPKERKRAHIGVIPHFFMAVLYVFLHAILIMVQATTLNVAFNSHNKSLLTIMMSNNFVEIKGSVFKKFEKNNLFQMSNSDIKERFTNYVLLLIVCLRNMEQFSWNPDHLWVLFPDVCMVIASEIAVDIVKHAFITKFNDITADVYSEYRASLAFDLVSSRQKNAYTDYSDSVARRMGFIPLPLAVLLIRVVTSSIKVQGILSYACVILFYFGLISLKVLNSIVLLGKSCQYVKEAKMEEKLSNPPATCTPGKPSSKSQNKCKPSQGLSTEENLSASITKQPIHQKENIIPLLVTSNSDQFLTTPDGDEKDITQDNSELKHRSSKKDLLEIDRFTICGNRID
Consider B2, for which the binding result in the experiment with GST-SMAD1 MH1 domain is given as “binds”; with GST-SMAD1 MH2 domain it was “no binding”; in the experiment with GST-SMURF1, “binds”; with GST-tagged SMAD1 it was “binds”; in experiment [6], “binds”.

B3: TAPT1 in HEK293T cells transfected with Flag-SMAD1 or Flag-SMAD1-SM (protein, UniProt Q6NXT6 1-567)
chain: MAGVGDAAAPGEGGGGGVDGPQRDGRGEAEQPGGSGGQGPPPAPQLTETLGFYESDRRRERRRGRTELSLLRFLSAELTRGYFLEHNEAKYTERRERVYTCLRIPRELEKLMVFGIFLCLDAFLYVFTLLPLRVFLALFRLLTLPCYGLRDRRLLQPAQVCDILKGVILVICYFMMHYVDYSMMYHLIRGQSVIKLYIIYNMLEVADRLFSSFGQDILDALYWTATEPKERKRAHIGVIPHFFMAVLYVFLHAILIMVQATTLNVAFNSHNKSLLTIMMSNNFVEIKGSVFKKFEKNNLFQMSNSDIKERFTNYVLLLIVCLRNMEQFSWNPDHLWVLFPDVCMVIASEIAVDIVKHAFITKFNDITADVYSEYRASLAFDLVSSRQKNAYTDYSDSVARRMGFIPLPLAVLLIRVVTSSIKVQGILSYACVILFYFGLISLKVLNSIVLLGKSCQYVKEAKMEEKLSNPPATCTPGKPSSKSQNKCKPSQGLSTEENLSASITKQPIHQKENIIPLLVTSNSDQFLTTPDGDEKDITQDNSELKHRSSKKDLLEIDRFTICGNRID
For the molecule B3, the binding entry with Flag-SMAD1 is given as “binds”.
